The values below come from publication PMC6212790.

The list shows a part of the results. At the low end of the ranking, values are background and their order means little.

The test has as its target T1, GST-Rok-C97-191 (UniProt O34857).
T1 sequence: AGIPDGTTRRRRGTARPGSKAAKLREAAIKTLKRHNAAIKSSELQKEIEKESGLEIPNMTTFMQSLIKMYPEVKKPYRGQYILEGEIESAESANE
Description: protein binding microarray.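 Also: rank score from −0.5 (least bound) to 0.5 (best bound).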 The settings on record: Rok is a gene silencer of Bacillus subtilis; high values mean tight binding; most listed sequences are background and not binding sites; double strand, one strand shown.
CCTAGCTC displayed a binding signal of -0.127 E-score.

Sequence CCCACCGG returned a binding signal of -0.217 E-score. Then ATACCCGC, with -0.0886 E-score; and CATTGTGC, with 0.154 E-score; and ACTTGGCG, with -0.022 E-score. Then CTCAGCGA, with -0.0352 E-score; and CTCGATTC, with 0.106 E-score. Consider TACGGAAA, for which the binding signal was found to be 0.0938 E-score. Then ACTAAGCC, with -0.163 E-score; and AGGCCTGG, with -0.37 E-score.

As for ATAGTTAG, the binding signal worked out at 0.35 E-score. Then CATCGGCA, with -0.208 E-score. Then CAGACACA, with 0.067 E-score; and TGTGCCAA, with -0.16 E-score; and AAGTGAAC, with -0.18 E-score. Then GGGCAGAA, with -0.131 E-score; and ATCCCCGC, with -0.217 E-score.

On to CATATCAG, for which the binding signal was -0.0728 E-score. Sequence AAGGAGGA displayed a binding signal of -0.0693 E-score. For AGTGTCTG the value was -0.11 E-score; for ACTGCAGT, 0.144 E-score; for ACCTGCAT, 0.185 E-score. For AACATTTC the value was 0.0259 E-score. For ACTACAGG the value was 0.0574 E-score. Sequence ACCAGTCG displayed a binding signal of -0.0573 E-score. Then GCTATGAA, with -0.0129 E-score; and CGGACGGA, with -0.267 E-score; and GGTGTGTA, with 0.189 E-score. For AATAGTTC the value was 0.343 E-score.

GACCGAAC registered a binding signal of -0.311 E-score. Then GAGCGCTA, with -0.00065 E-score. Then CCGCTACA, with -0.000498 E-score. Then ATCCCCGA, with -0.144 E-score. As to AGAGCGCG, the binding signal was determined as 0.0509 E-score. For GTTCGCCA the value was -0.0157 E-score; for CGAAGCGC, -0.146 E-score; for AGCTCTAG, 0.0105 E-score. The sequence ACCCGAAC had a binding signal of -0.035 E-score. Then GAGACCTA, with -0.147 E-score; and ATCTTCAG, with -0.0198 E-score.

Turning to CTCATAAA, the binding signal is -0.0294 E-score. For CCTCTCGC the value was -0.186 E-score; for AGGGCGAA, -0.139 E-score; for ATTGCAGC, -0.0924 E-score.

CTGCACCC registered a binding signal of -0.22 E-score. Then AACAAGTA, with 0.371 E-score; and ATATGTCA, with 0.0956 E-score; and AGGCCTGA, with -0.155 E-score. For CAAATGAG the value was -0.175 E-score; for ATCTGGAC, -0.151 E-score; for AATTAGTA, 0.408 E-score. For TCCCCTAA the value was -0.201 E-score; for GTTTGCTA, 0.207 E-score.

GCGTCCAC came in with a binding signal of -0.238 E-score. Then ACTAAACG, with 0.0596 E-score; and ATGCGACC, with -0.271 E-score; and CCGATCCG, with -0.168 E-score. For GAGTCGAC the value was -0.162 E-score. Then ACACGGAC, with -0.202 E-score; and TCCCCCCA, with -0.128 E-score; and CACCCACA, with -0.0813 E-score. Turning to AGGGGAAT, the binding signal was -0.0867 E-score. As for AACAGCAG, the binding signal is -0.0424 E-score. Consider AAGGCCGT, for which the binding signal is -0.245 E-score. Then TAAGGCTA, with -0.0394 E-score. Then AACAACCA, with -0.00264 E-score; and AGAGAAAT, with 0.278 E-score; and ATCGTCTC, with -0.146 E-score.

In turn, GGTACACC yielded a binding signal of -0.00389 E-score. For ATCGAGCG the value was 0.0214 E-score; for CGAGGGTC, -0.146 E-score. For ACGTGACA the value was -0.0371 E-score. For AATGGTGG the value was -0.0858 E-score. With ACTGCCGC, the binding signal was -0.16 E-score. For ACTGCTAT the value was 0.186 E-score. Then CGACTGCG, with -0.243 E-score. Then CTGGCGTA, with 0.0573 E-score; and ACGCCTCC, with -0.137 E-score; and GCTGATAA, with 0.19 E-score. As to ATCCTCAG, the binding signal is -0.0161 E-score.

For the sequence TCAATAAA, the binding signal turned out to be 0.186 E-score.

ATACCAGG had a binding signal of 0.158 E-score.

Regarding ACGTAACG, the binding signal was -0.0897 E-score. For GCCGGAAA the value was -0.1 E-score; for GACAACGA, -0.105 E-score. The sequence CTCCCTCC had a binding signal of -0.156 E-score. Then CAAAAAAC, with 0.0557 E-score. For ATGTTAGA the value was 0.155 E-score; for GATCCGGC, -0.281 E-score; for GAAAGTCC, -0.0693 E-score. Then AACCTAAT, with 0.0397 E-score. Regarding CGATTTCA, the binding signal was -0.247 E-score. For AGCTTGGG the value was -0.139 E-score; for CAAGAAGA, -0.0481 E-score.

AGCGCGAG came in with a binding signal of -0.0438 E-score.

The sequence CGGAAACC had a binding signal of -0.0164 E-score. As to ATCGTCGA, the binding signal is -0.0168 E-score. Consider CCTGCTTC, for which the binding signal was -0.26 E-score. Sequence CACTTGCG returned a binding signal of -0.0481 E-score. Then ACAGGAAT, with -0.262 E-score; and AGTCGACA, with -0.0961 E-score; and CGTGGCCA, with -0.306 E-score. Then CGCTTAAA, with -0.127 E-score; and CTCCCATC, with -0.161 E-score; and GCTGTCCA, with -0.0683 E-score. Then GTATCCAA, with 0.116 E-score. For the sequence AAGAACAT, the binding signal stood at 0.00812 E-score.

Sequence AGCCCGTA returned a binding signal of -0.174 E-score. Sequence GGGATCCA registered a binding signal of -0.17 E-score.

For AATCACGA, the binding signal was -0.0422 E-score.

AGTAAAGG came in with a binding signal of -0.114 E-score. Then CGGGTCTC, with -0.0666 E-score. Then CCATGATC, with -0.055 E-score; and AATTAGCG, with 0.203 E-score; and CCTCCATA, with -0.0411 E-score.

With CATGGCAG, the binding signal is -0.315 E-score. For ATGTGACG the value was -0.144 E-score; for AGGATAGG, 0.0759 E-score; for CGGATGAA, 0.00172 E-score. For GTACGTCA the value was -0.0688 E-score. For CATGGAGG the value was -0.181 E-score; for CAACCCGG, -0.249 E-score. For ACAAACCC, the binding signal is -0.00398 E-score. As to AGGCTGTG, the binding signal was -0.00296 E-score. CCTACTCG registered a binding signal of -0.00475 E-score. For GTCGTATA the value was 0.0892 E-score; for AACATTAA, 0.124 E-score. Turning to ACGAAGTA, the binding signal is -0.0414 E-score. Then AGGCACGG, with -0.257 E-score. For CCGCGCCC the value was -0.205 E-score; for GTGACCAC, -0.266 E-score. For the sequence ACTTATCA, the binding signal amounted to 0.183 E-score.

For GTCTGCCA, the binding signal is -0.159 E-score. The sequence AGAGTATA showed a binding signal of 0.261 E-score. Then GCGCTGAA, with -0.126 E-score. Then AAGACGCA, with -0.0653 E-score. Then AAGTGGTG, with -0.0322 E-score; and CACTTTTA, with 0.0588 E-score; and AGTCAGTG, with 0.0467 E-score. Turning to ATTTGACA, the binding signal was 0.138 E-score.

As to GACCATGA, the binding signal was -0.0412 E-score.

AATTAACC came in with a binding signal of 0.149 E-score. Then AGGTCGAT, with -0.103 E-score; and AGCAGGAC, with -0.227 E-score. The sequence ATGAGTAC yielded a binding signal of 0.244 E-score. Then GGCACTAC, with -0.0847 E-score.

The sequence CCCCTCCG came in with a binding signal of -0.329 E-score. Sequence GTAGATAC displayed a binding signal of 0.381 E-score.

Take ATATTACA: the binding signal was determined as 0.304 E-score.

Sequence ATTTCACA came in with a binding signal of 0.0633 E-score. For GCGTCGAC the value was -0.139 E-score; for GACAGAGA, -0.182 E-score; for CAAGTATG, 0.0651 E-score. Sequence CCTCGGAA gave a binding signal of -0.176 E-score. Then AGATCAAT, with -0.0402 E-score.

As for CTCCCCTC, the binding signal is -0.313 E-score. Then GACTTGTA, with -0.0308 E-score.

In turn, AATGACGG gave a binding signal of 0.0284 E-score. Then AGATCAAC, with -0.0585 E-score; and CGATCGGC, with -0.244 E-score. Consider AACTACTT, for which the binding signal was found to be 0.392 E-score. Sequence CAGATACG registered a binding signal of 0.0158 E-score. In the case of AACCGGTC, the binding signal is -0.217 E-score. Then TAGGAAAA, with 0.0178 E-score; and CGCAAACC, with -0.00397 E-score; and GAGAGCAC, with -0.121 E-score.

Sequence CATCAACA gave a binding signal of 0.0558 E-score. Then GTTCTCGA, with -0.0229 E-score; and ATGCAGCG, with 0.00717 E-score. Regarding CCTTGCTA, the binding signal stood at 0.00423 E-score. In turn, GCGCTTCA yielded a binding signal of -0.0571 E-score.

In turn, CCGCCGCG returned a binding signal of -0.271 E-score.
